US20230321261A1, “AXL-SPECIFIC ANTIBODY-DRUG CONJUGATES FOR CANCER TREATMENT” (GENMAB A/S, priority 2016, published 2023)

B1: IgG1-AXL-061: AXL-specific human IgG1,κ antibody, VH SEQ ID NO:143, VL SEQ ID NO:144, Ig1 domain binding (antibody, listed as Homo sapiens, V domains shown)
VH: QVQLVQSGAEVKKPGASVKVSCKASGYAFTGYGISWVRQAPGQGLEWIGWISAYNGNTNYVQNLQDRVTMTTDTSTSTAYMELRSLRSDDTAVYYCARDHISMLRGIIIRNYWGQGTLVTVSS
VL: [skipping about 100 residues]
B2: IgG1-AXL-061-vcMMAE (conjugate)
VH: B1 VH
VL: [skipping about 100 residues]

Tests used:
AXL on A431 cells = biological target: T1, AXL on A431 cells (Homo sapiens, UniProt P30530); experiment: Antibody binding to A431 cells with or without Gas6 pre-incubation
T1 construct: AXL-positive A431 cells were incubated; endogenous in cells; host or cells: A431

[1] = biological target: T2, Gas6 binding to AXL on A431 cells (Homo sapiens, UniProt P30530); experiment: Gas6 binding to A431 cells pre-incubated with AXL antibodies
T2 construct: endogenous in cells; host or cells: A431
Description: Alternatively, A431 cells were pre-incubated with 10 µg/mL AXL antibodies (15 minutes, 4° C.) to assess if the AXL ligand Gas6 could still bind in presence of AXL antibodies. […] After washing three times in PBS/0.1% BSA/0.02% azide, cells were incubated with mouse anti-Gas6 IgG2a (R&D Systems; cat no. MAB885) at 4° C. for 30 min. After washing three times in PBS/0.1% BSA/0.02% azide, cells were incubated with FITC-labelled goat anti-mouse IgG (Dako, Heverlee, Belgium; cat no. F049702) at 4° C. for 30 min in the dark. Next, cells were washed twice in PBS/0.1% BSA/0.02% azide, resuspended in 120 µL PBS/0.1% BSA/0.02% azide and analyzed on a FACS Cantoll (BD Biosciences).
Binding curves were analyzed using non-linear regression (sigmoidal dose-response with variable slope) using GraphPad Prism V5.04 software (GraphPad Software, San Diego, CA, USA).
Therefore, binding of Gas6 to A431 cells that had been pre-incubated with 10 µg/mL AXL antibodies was tested as described in Example 2.

[2] = biological target: T3, human-mouse chimeric AXL mutants (Homo sapiens, UniProt P30530, A151P/A183V/D170T/D266N/G187S/H193Q/P184T/P188S/R148K/R190H/T149A/T182P/V194T); experiment: AXL domain specificity using human-mouse AXL chimeric molecules (flow cytometry); assay type: binding; conditions: 1 µg/mL antibody
T3 construct: constructs for expression of various full-length AXL variants were generated; expressed in transfected cells; host or cells: HEK293F

[3] = biological target: T4, human-mouse chimeric AXL mutants (Homo sapiens, UniProt P30530, A273L/A287V/A310S/E275K/E281D/G297E/H300L/L233V/M269V/N230H/P276S/P329T/Q227R/Q272W/R229H/S285L/S298K/S319P/T259N/T312S/V309I); experiment: as above; assay type: binding; conditions: 1 µg/mL antibody
T4 construct: constructs for expression of various full-length AXL variants were generated; expressed in transfected cells; host or cells: HEK293F

[4] = biological target: T5, human-mouse chimeric AXL mutants (Homo sapiens, UniProt P30530, A349V/A358V/A407T/A411S/A425P/A431G/C405S/D266N/F350L/G397R/H352R/I340V/K439S/P444R/Q372R/Q387R/Q394R/Q436H/R386T/S398P/S400A/S442P/T343M/T443P/V434L); experiment: as above; assay type: binding; conditions: 1 µg/mL antibody
T5 construct: constructs for expression of various full-length AXL variants were generated; expressed in transfected cells; host or cells: HEK293F

[5] = biological target: T6, human-mouse chimeric AXL mutants (Homo sapiens, UniProt P30530, D266N/D95E/E92W/F120H/G122E/H123G/H68V/I97K/L118M/Q114E/Q124R/Q57E/S106A/S81N/T105S/T112A/Y132F); experiment: as above; assay type: binding; conditions: 1 µg/mL antibody
T6 construct: constructs for expression of various full-length AXL variants were generated; expressed in transfected cells; host or cells: HEK293F

[6] = test system: LCLC-103H xenograft tumors; experiment: LCLC-103H xenograft model; assay type: in vivo, SCID mice; conditions: 3 mg/kg (Example 13, FIG. 14A)
Description: 5 × 10^6 LCLC-103H (large cell lung carcinoma) tumor cells (obtained from Leibniz-Institut DSMZ-Deutsche Sammlung von Mikroorganismen und Zellkulturen GmbH (DSMZ)) in 200 µL PBS were injected subcutaneously in the right flank of female SCID mice. Starting 14-21 days after tumor cell inoculation, when the average tumor size was >100-200 mm^3 and distinct tumor growth was observed, a single injection with 1 mg/kg (20 µg/mouse) IgG1-AXL-vcMMAE antibodies (as described in Supplementary Example 1) or control (unconjugated IgG1-b12) was given intraperitoneally (100 µL/mouse). Tumor volume was determined at least two times per week. Tumor volumes (mm^3) were calculated from caliper (PLEXX) measurements as: 0.52 × (length) × (width)^2.
Tumor induction was performed by subcutaneous injection of 5 × 10^6 A431 or LCLC-103H tumor cells (both obtained from Leibniz-Institut - Deutsche Sammlung von Mikroorganismen und Zellkulturen GmbH (DSMZ)) in 200 µL PBS in the right flank of female SCID mice. Treatment was started 14-21 days after tumor cell inoculation, when the average tumor size was >100-200 mm^3 and distinct tumor growth was observed. […] Tumor volume was determined at least two times per week. Tumor volumes (mm^3) were calculated from caliper (PLEXX) measurements as: 0.52 × (length) × (width)^2.

A431 tumors = experiment: A431 xenograft model (high Gas6); assay type: in vivo, SCID mice; conditions: 3 mg/kg
Description: Tumor induction was performed by subcutaneous injection of 5 × 10^6 A431 or LCLC-103H tumor cells (both obtained from Leibniz-Institut - Deutsche Sammlung von Mikroorganismen und Zellkulturen GmbH (DSMZ)) in 200 µL PBS in the right flank of female SCID mice. Treatment was started 14-21 days after tumor cell inoculation, when the average tumor size was >100-200 mm^3 and distinct tumor growth was observed. Mice received a single injection or a total of 4 biweekly intraperitoneal injections with IgG1-AXL-vcMMAE ADCs or control antibody (unconjugated IgG1-b12), as indicated. Tumor volume was determined at least two times per week. Tumor volumes (mm^3) were calculated from caliper (PLEXX) measurements as: 0.52 × (length) × (width)^2.

Row | Molecule | Antibody binding to A431 cells: Maximal binding in presence of Gas6 (% of binding in absence of Gas6) mean (s.d.) (AXL on A431 cells; pre-incubation with 10 µg/mL Gas6) | Antibody binding to A431 cells: EC50 w/o Gas6 (µg/mL) mean (s.d.) (AXL on A431 cells; without Gas6 pre-incubation) | binding of Gas6 to A431 cells pre-incubated with antibody, compared to IgG1-b12 and medium controls ([1]; 10 µg/mL antibody) | Gas6 binding to A431 cells: Maximal binding in presence of AXL antibodies (% of binding in presence of control antibody) mean (s.d.) ([1]; pre-incubation with 10 µg/mL antibody, control antibody b12) | binding to hsAXL-mmIg2 [2] | binding to hsAXL-mmFN1 [3] | binding to hsAXL-mmFN2 [4] | binding to hsAXL-mmIg1 [5] | anti-tumor activity in the LCLC-103H xenograft model [6] | anti-tumor activity in the A431 xenograft model (A431 tumors)
1 | B1 | 43 (28) % | 0.15 (n.a.) µg/mL | largely reduced | 22 (8) % | not affected | not affected | not affected | strongly reduced binding |  | 
2 | B2 |  |  |  |  |  |  |  |  | tumor regression | did not show anti-tumor activity
